Results reported in publication PMC6451091.
The list shows a part of the results. The protein was read in a cell extract, so binding may be indirect.

Tested on: PU.1 (endogenous, THP-1 nuclear extract) + IRF8 (endogenous, THP-1 nuclear extract)
Assay: nuclear extract protein-binding microarray (nextPBM)
Conditions: 20 mM HEPES pH 7.9, 100 mM NaCl, 1 mM DTT, 0.2 mg/mL BSA, 0.02% Triton X-100, 2% milk, 0.4 mg/mL salmon testes DNA; 1 h; temperature not stated; high values mean tight binding; double strand, one strand shown; sequences stand for … in GCCTAGCAC…GTGCTAGGTCTTGATTCGCTTGACGCTGCTG

Q: Which binding signal does the source give for TTGCCAGGGAAGTGAAAGCA here?
A: 6.01 z-score

Q: Which binding signal does the source give for AAGGTGAGGAACTGAAACTT here?
A: 18.1 z-score

Q: Which binding signal does the source give for CAGGCAAGGAACTGAAACTC here?
A: 12.2 z-score

Q: For TGAGAGGAGAAGTGAGACCT, which binding signal is on record?
A: 1.47 z-score

Q: With TAAAGGATGAACTGAAACCA as the sequence, how does the binding signal read?
A: 14.4 z-score

Q: With CTGGCAGGGAACTGAGACTC as the sequence, how does the binding signal read?
A: 0.856 z-score

Q: How did the binding signal turn out when GGAGAGGAGAAGTGAAACCT was run?
A: 23.5 z-score

Q: GGGGAGAGGAAGTGAAAGCA was tested. Which binding signal did it give?
A: 12.3 z-score

Q: For GATAAGAGGAACAGAAAGCT, which binding signal is on record?
A: 0.649 z-score

Q: For AAAAATAGGAAGTGAAACTG, which binding signal is on record?
A: 67.2 z-score

Q: Which binding signal does the source give for TGAAACAGCAAGTGAAACCA here?
A: 18.5 z-score

Q: For CAAAGAAGGAAGTGAAACTG, which binding signal is on record?
A: 68.6 z-score

Q: For CTGCCAGGGAAGTGAAAGTA, which binding signal is on record?
A: 21.2 z-score

Q: TGTGAAAGGAAGTGAAACTG was tested. Which binding signal did it give?
A: 40.9 z-score

Q: For TGAGAGTAGAAGTGAAACCT, which binding signal is on record?
A: 17.7 z-score

Q: Which binding signal does the source give for CGAAACAGGAAGTGAAACCA here?
A: 80.8 z-score

Q: How did the binding signal turn out when TGCAGGTGGAAGTGAAACTG was run?
A: 40.8 z-score

Q: For GTAACAAGGAACTGAAACTC, which binding signal is on record?
A: 16.7 z-score

Q: How did the binding signal turn out when TAAAGGAGGAACTGAAAACA was run?
A: 1.74 z-score

Q: With TAAACGAGGAACTGAAACCA as the sequence, how does the binding signal read?
A: 25.8 z-score

Q: Which binding signal does the source give for GATAAGAGGAACTGAAAGCA here?
A: 8.12 z-score

Q: With CTGCCAGGGAATTGAAAGCA as the sequence, how does the binding signal read?
A: 0.364 z-score

Q: Which binding signal does the source give for TAAAGGAGGTACTGAAACCA here?
A: 7.38 z-score

Q: Which binding signal does the source give for CTGCCAGGGAAATGAAAGCA here?
A: 2 z-score

Q: TGAAACAAGAAGTGAAACCT was tested. Which binding signal did it give?
A: 26.6 z-score

Q: For GAAAGGAGGAACTGAAACCA, which binding signal is on record?
A: 37.7 z-score

Q: Which binding signal does the source give for TCAAACAGGAAGTGAAACCA here?
A: 67.7 z-score

Q: How did the binding signal turn out when TGACAGGAGAAGTGAAACCT was run?
A: 23.5 z-score

Q: With TGAAAAAGGAAGTGAAACCA as the sequence, how does the binding signal read?
A: 63.8 z-score

Q: For ATAGGGAGGAAGTGAAACTT, which binding signal is on record?
A: 47.7 z-score

Q: TGAAGCAGGAAGTGAAACCA was tested. Which binding signal did it give?
A: 59.6 z-score

Q: Which binding signal does the source give for AAAAAAAGGAAATGACAGTA here?
A: -0.111 z-score

Q: GTTTTGAGGAAGTGAAACTC was tested. Which binding signal did it give?
A: 79 z-score

Q: With TGGAAGAAGAAGTGAAACAA as the sequence, how does the binding signal read?
A: 4.74 z-score

Q: How did the binding signal turn out when GAGAGGAGGAAGTGAAACTG was run?
A: 61.9 z-score

Q: For CTGCAAAGGAAGTGAAACTC, which binding signal is on record?
A: 28.1 z-score

Q: TTAAAGAGGAAGAGAAACTT was tested. Which binding signal did it give?
A: 3.85 z-score

Q: With GATAAGAGGAACTGACAGCT as the sequence, how does the binding signal read?
A: -0.164 z-score

Q: How did the binding signal turn out when GCTTTAAGGAACTGAAACTG was run?
A: 28.5 z-score

Q: With AAAAAGGGGAAATGAAACTA as the sequence, how does the binding signal read?
A: 64.3 z-score
